Measured values: the RNAGym collection of RNA variant scans (doi:10.1093/nar/gkz1192)
The source gives no read counts; variants with many changes may rest on few reads.

B1: CPEB3 Ribozyme (parent)
chain: UAACAGGGGGCCACAGCAGAAGCGUUCACGUCGCAGCCCCUGUCAGAUUCUGGUGAAUCUGCGAAUUCUGCUGUAUAUCUC

Variants of: B1
Assay: self-cleavage, relative activity (ratio to wild type); higher = more cleavage; in vitro, sequencing
In short: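 Barcoded CPEB3 ribozyme mutants, produced by rounds of error-prone PCR, self-cleaved while being transcribed with T7 RNA polymerase for 5 hours at 37°C and during a subsequent 15 min DNase I step before EDTA was added. Sequencing of template-switched cDNA on Illumina gave cleaved and total reads, and DNA sequencing assigned barcodes to variants. Each variant's relative activity is its cleaved/total read fraction divided by the unmutated ribozyme's fraction, averaged across three batches. A variant needed a minimum of 5 reads.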
U26C A45G G63A gave a self-cleavage of 0.25.
With U26C A45G U48C U58A the self-cleavage was 0.08.
For U26C A45G U54A U67C, the self-cleavage was 0.19.
In the case of U26C A45G U60A, the self-cleavage is reported as 0.23.
With U26C A45G U72C the self-cleavage was 0.35.
Variant U26C A45G U72C U76C has a self-cleavage of 0.28.
With U26C A45U U54C A56G A57G U74A the self-cleavage was 0.21.
U26C A45U U58C U72C showed a self-cleavage of 0.06.
With U26C A47G G63U the self-cleavage was 0.58.
Variant U26C A47G U48C A56G C68U U74C has a self-cleavage of 0.16.
Variant U26C A47G U80C has a self-cleavage of 0.39.
With U26C A47U U48C A56G U58C U76C A77G the self-cleavage was 0.1.
Work on U26C A47U U54C yielded a self-cleavage of 0.19.
Variant U26C A56C U69C has a self-cleavage of 0.11.
U26C A56G C62U U80A gave a self-cleavage of 0.08.
In the case of U26C A56G C68U, the self-cleavage is reported as 0.09.
For U26C A56G U66C, the self-cleavage was 0.17.
Work on U26C A56G U78C yielded a self-cleavage of 0.22.
For U26C A56U A64U U72C, the self-cleavage was 0.13.
U26C A56U A77U gave a self-cleavage of 0.26.
Variant U26C A56U U58G U60C A64G has a self-cleavage of 0.29.
For U26C A56U U72C, the self-cleavage was 0.39.
With U26C A57G C68U the self-cleavage was 0.3.
In the case of U26C A57G U60A A64U U72C, the self-cleavage is reported as 0.16.
Work on U26C A57G U72A yielded a self-cleavage of 0.4.
U26C A64G A77U gave a self-cleavage of 0.42.
With U26C A64G G70C U72C the self-cleavage was 0.09.
Work on U26C A64G U69C yielded a self-cleavage of 0.15.
U26C A64U U72A gave a self-cleavage of 0.07.
Work on U26C A65G C68A A77G yielded a self-cleavage of 0.08.
U26C A77U U78A showed a self-cleavage of 0.46.
With U26C C27U A64G U72G the self-cleavage was 0.09.
Variant U26C C27U G53A A56G has a self-cleavage of 0.3.
In the case of U26C C27U U58G U72C, the self-cleavage is reported as 0.16.
U26C C29G A35U A45G C68A showed a self-cleavage of 0.19.
For U26C C29G A65G A77G U78C, the self-cleavage was 0.1.
In the case of U26C C29G U31A A35G U48C, the self-cleavage is reported as 0.26.
Variant U26C C29G U31A U48C A56U has a self-cleavage of 0.17.
U26C C29U A45C G52A U76C U78C gave a self-cleavage of 0.19.
For U26C C29U A45U, the self-cleavage was 0.26.
Work on U26C C32G A47G U48C A65G U72A yielded a self-cleavage of 0.11.
With U26C C32U U41C A45G A57G U60C the self-cleavage was 0.03.
U26C C32U U54A U74C showed a self-cleavage of 0.17.
In the case of U26C C32U U74A, the self-cleavage is reported as 0.28.
Work on U26C C34U A56G A57G A75G yielded a self-cleavage of 0.05.
With U26C C34U U48C A64U U78C the self-cleavage was 0.12.
With U26C C37A A56G G70A U72G the self-cleavage was 0.05.
With U26C C37G A45G U54G G55U A65G U80A the self-cleavage was 0.05.
Variant U26C C37U U58C has a self-cleavage of 0.15.
U26C C38U A45G U74A U78C gave a self-cleavage of 0.35.
With U26C C38U U43C the self-cleavage was 0.41.
U26C C39A A47G U49C showed a self-cleavage of 0.08.
With U26C C39A U41C U43A U67C U80C the self-cleavage was 0.09.
For U26C C39A U67C U69A, the self-cleavage was 0.07.
Variant U26C C39U U41C U66C has a self-cleavage of 0.44.
U26C C40A A56U gave a self-cleavage of 0.22.
For U26C C40U G53C U60A, the self-cleavage was 0.18.
Variant U26C C40U U72A U80A has a self-cleavage of 0.27.
U26C C44A U58C showed a self-cleavage of 0.2.
U26C C44U A47G U69A U78C gave a self-cleavage of 0.07.
Work on U26C C50A U66C yielded a self-cleavage of 0.16.
U26C C50A U69C gave a self-cleavage of 0.15.
Work on U26C C50U A56G A65U yielded a self-cleavage of 0.15.
Variant U26C C79A U80C has a self-cleavage of 0.61.
U26C G30A A35U gave a self-cleavage of 0.15.
For U26C G30A U49C A56G, the self-cleavage was 0.23.
U26C G30U U41C U54C A57G U72A gave a self-cleavage of 0.14.
In the case of U26C G33A U58A U72G U78C, the self-cleavage is reported as 0.08.
With U26C G33A U80A the self-cleavage was 0.18.
U26C G36C U80C gave a self-cleavage of 0.08.
Work on U26C G55A U67C yielded a self-cleavage of 0.17.
With U26C G61U U74C the self-cleavage was 0.33.
With U26C U31A A47U U76A the self-cleavage was 0.14.
U26C U31A A75G gave a self-cleavage of 0.12.
In the case of U26C U31A C37U U49C A56U, the self-cleavage is reported as 0.08.
Variant U26C U31A G33A U51C U60C U76A has a self-cleavage of 0.13.
For U26C U31A U41C, the self-cleavage was 0.23.
Work on U26C U31A U41C G46A A56U U78A yielded a self-cleavage of 0.2.
U26C U31C A35C G36A U60A gave a self-cleavage of 0.13.
U26C U31C A45G U48C U49C gave a self-cleavage of 0.42.
Variant U26C U31C A56G has a self-cleavage of 0.33.
Variant U26C U31C A77U U80C has a self-cleavage of 0.27.
U26C U31C C34U A64G showed a self-cleavage of 0.15.
Work on U26C U31C G53A yielded a self-cleavage of 0.31.
U26C U31C G63A U74C U76C showed a self-cleavage of 0.27.
With U26C U31C U43A U60A the self-cleavage was 0.06.
In the case of U26C U31C U51A, the self-cleavage is reported as 0.28.
U26C U31C U54A gave a self-cleavage of 0.31.
Work on U26C U31C U60A A65G U72G yielded a self-cleavage of 0.06.
Work on U26C U41A A47G C68U U74C U78A yielded a self-cleavage of 0.17.
U26C U41A A47G U54C A56C showed a self-cleavage of 0.12.
Work on U26C U41A A65G yielded a self-cleavage of 0.2.
In the case of U26C U41A U51C, the self-cleavage is reported as 0.36.
U26C U41A U54C gave a self-cleavage of 0.3.
U26C U41A U60C showed a self-cleavage of 0.29.
For U26C U41A U66C U67C, the self-cleavage was 0.21.
Work on U26C U41A U76C yielded a self-cleavage of 0.32.
For U26C U41C U58C U66A U72G, the self-cleavage was 0.08.
For U26C U41C U67C, the self-cleavage was 0.15.
With U26C U41G G70A U80C the self-cleavage was 0.16.
U26C U43A A47G showed a self-cleavage of 0.16.
Work on U26C U43A U54C yielded a self-cleavage of 0.21.
U26C U43C A64G gave a self-cleavage of 0.45.
U26C U43C U51A gave a self-cleavage of 0.58.
Variant U26C U43C U58C U69C has a self-cleavage of 0.48.
U26C U43G U48C showed a self-cleavage of 0.41.
U26C U48A A56G showed a self-cleavage of 0.11.
U26C U48A U51A gave a self-cleavage of 0.22.
Variant U26C U48C A56G has a self-cleavage of 0.16.
In the case of U26C U48C U51C, the self-cleavage is reported as 0.19.
With U26C U48C U66A the self-cleavage was 0.44.
U26C U48C U72C showed a self-cleavage of 0.2.
In the case of U26C U48C U76A, the self-cleavage is reported as 0.34.
U26C U49A U76A U80C showed a self-cleavage of 0.15.
Variant U26C U49C U51A has a self-cleavage of 0.29.
With U26C U49C U67A the self-cleavage was 0.07.
For U26C U51A A57U, the self-cleavage was 0.36.
U26C U51A A75U gave a self-cleavage of 0.56.
For U26C U51A C59A C71A U72C, the self-cleavage was 0.08.
U26C U51A U54C G61U U67A gave a self-cleavage of 0.16.
Work on U26C U51A U54C U67A yielded a self-cleavage of 0.04.
For U26C U51A U60C U78A, the self-cleavage was 0.13.
U26C U51A U69C showed a self-cleavage of 0.39.
U26C U51A U78A gave a self-cleavage of 0.46.
With U26C U51C A56G U66C the self-cleavage was 0.28.
With U26C U51C C59G A64G U67A the self-cleavage was 0.23.
Variant U26C U51C G63A has a self-cleavage of 0.21.
U26C U51C U58C U69C showed a self-cleavage of 0.
U26C U51C U60A gave a self-cleavage of 0.42.
In the case of U26C U51C U66C U69A, the self-cleavage is reported as 0.16.
In the case of U26C U51C U69C, the self-cleavage is reported as 0.09.
With U26C U51C U74C the self-cleavage was 0.81.
Variant U26C U54A A56G has a self-cleavage of 0.27.
Variant U26C U54A A56U has a self-cleavage of 0.23.
With U26C U54A A65G U67G the self-cleavage was 0.1.
Variant U26C U54A U58C U69A has a self-cleavage of 0.11.
Work on U26C U54A U60C yielded a self-cleavage of 0.21.
In the case of U26C U54C A57G U74C, the self-cleavage is reported as 0.22.
With U26C U54C A77U the self-cleavage was 0.58.
Variant U26C U54G U72C A75G has a self-cleavage of 0.16.
Work on U26C U58C C62U U72C yielded a self-cleavage of 0.08.
In the case of U26C U58C U60A, the self-cleavage is reported as 0.12.
U26C U58C U78C gave a self-cleavage of 0.21.
In the case of U26C U58G U72C, the self-cleavage is reported as 0.17.
U26C U60A C62A U69A U74C gave a self-cleavage of 0.13.
With U26C U60A C81U the self-cleavage was 0.71.
Work on U26C U60C A64G yielded a self-cleavage of 0.09.
For U26C U60C A75U U78C, the self-cleavage was 0.15.
U26C U66C U67C showed a self-cleavage of 0.26.
Variant U26C U66C U74A has a self-cleavage of 0.22.
In the case of U26C U67C U69A, the self-cleavage is reported as 0.18.
In the case of U26C U67C U80C, the self-cleavage is reported as 0.31.
With U26C U69G U78C the self-cleavage was 0.23.
U26C U74A U80C gave a self-cleavage of 0.84.
For U26G A28G U72C, the self-cleavage was 0.08.
Work on U26G A35G A56G A57G yielded a self-cleavage of 0.31.
U26G A35G U43C U54C gave a self-cleavage of 0.82.
Variant U26G A45G A56G U80A has a self-cleavage of 0.04.
U26G A45G U48C U58C gave a self-cleavage of 0.7.
In the case of U26G A47G U67C, the self-cleavage is reported as 0.07.
U26G C38A A64G showed a self-cleavage of 0.21.
U26G U31C A64G U72C showed a self-cleavage of 0.06.
In the case of U26G U31C C71A, the self-cleavage is reported as 0.14.
Variant U26G U41C A64G has a self-cleavage of 0.23.
Work on U26G U43C G52U C62A G73A yielded a self-cleavage of 0.21.
U26G U49C A64U U72C showed a self-cleavage of 0.05.
Variant U26G U58C U67C U72C has a self-cleavage of 0.05.
